From the BET-seq Pho4 binding data (Le et al. 2018)
The other results are listed elsewhere or left out. The energies were worked out here from pooled read counts, against the library average; single values are noisy.

target: T1, Pho4 (S. cerevisiae) (UniProt P07270); test: relative binding free energy (BET-seq); higher = weaker binding; conditions: reference: library average
T1 sequence: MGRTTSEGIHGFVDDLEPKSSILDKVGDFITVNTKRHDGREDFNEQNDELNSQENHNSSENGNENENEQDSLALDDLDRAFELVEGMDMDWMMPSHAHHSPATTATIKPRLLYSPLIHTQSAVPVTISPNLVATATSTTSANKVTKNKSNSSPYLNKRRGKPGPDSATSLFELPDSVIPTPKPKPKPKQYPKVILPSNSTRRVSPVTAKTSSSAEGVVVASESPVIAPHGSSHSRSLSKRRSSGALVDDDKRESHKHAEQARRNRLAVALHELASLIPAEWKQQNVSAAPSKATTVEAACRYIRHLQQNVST

| Sequence | relative binding free energy |
| --- | --- |
| GTGTCCACGTGAGTTG | 0.17 kcal/mol |
| TAAGGCACGTGTGCTG | -0.11 kcal/mol |
| AGGGGCACGTGGTTAA | -0.16 kcal/mol |
| GGGGACACGTGGTATG | 0.03 kcal/mol |
| TGCAGCACGTGAAGTT | 0.18 kcal/mol |
| CATCTCACGTGTGGGG | 0.28 kcal/mol |
| ATTGACACGTGTGTTT | 0 kcal/mol |
| GTGGACACGTGCATGT | 0.08 kcal/mol |
| TGGTTCACGTGATCAA | 0.32 kcal/mol |
| GGGGGCACGTGTTGTT | -0.13 kcal/mol |
| CTGGTCACGTGAATTA | 0.29 kcal/mol |
| TTTACCACGTGGATGA | 0.1 kcal/mol |
| CAGATCACGTGAGGTG | 0.49 kcal/mol |
| TGCATCACGTGTGGGG | 0.17 kcal/mol |
| AAGATCACGTGTGAAT | 0.25 kcal/mol |
| TATTTCACGTGATTTA | 0.26 kcal/mol |
| TTCGGCACGTGGGTCG | -0.09 kcal/mol |
| AGTTGCACGTGAGATA | 0.17 kcal/mol |
| TTTATCACGTGGTGTG | 0.09 kcal/mol |
| TTAGGCACGTGTCAGC | 0.11 kcal/mol |
| ATGAGCACGTGGGAGC | -0.05 kcal/mol |

| Sequence | relative binding free energy |
| --- | --- |
| TGTGGCACGTGGCGAG | -0.07 kcal/mol |
| TCGAGCACGTGGTATG | -0.21 kcal/mol |
| GGTGGCACGTGCGGAT | -0.22 kcal/mol |
| GTGGCCACGTGTTTGG | 0.15 kcal/mol |
| GTGAACACGTGTGGAA | 0.14 kcal/mol |
| GCGCTCACGTGTATGG | 0.28 kcal/mol |
| ATCTTCACGTGAAGTG | 0.15 kcal/mol |
| TGTATCACGTGATATC | 0.31 kcal/mol |
| ATTTACACGTGTCTTA | 0.08 kcal/mol |
| GTGTGCACGTGTTCAT | 0.03 kcal/mol |
| AAGCGCACGTGTGGTA | -0.15 kcal/mol |
| GTATGCACGTGCTTGT | -0.04 kcal/mol |
| TATAACACGTGTGTAA | 0 kcal/mol |
| GCAGGCACGTGAAGGG | 0.08 kcal/mol |
| CGCGGCACGTGGGGTG | -0.32 kcal/mol |
| TGAGGCACGTGATGAA | -0.01 kcal/mol |
| GCGGGCACGTGTTTTT | -0.08 kcal/mol |
| GCTGGCACGTGTGATG | 0.04 kcal/mol |
| ACATTCACGTGTGGTG | 0.23 kcal/mol |
| TTAAGCACGTGGTGGG | -0.19 kcal/mol |
| AGTGACACGTGTGAGC | 0.09 kcal/mol |

| Sequence | relative binding free energy |
| --- | --- |
| AAATGCACGTGGGTGC | -0.12 kcal/mol |
| ATGTACACGTGTATAA | 0.12 kcal/mol |
| TTGGACACGTGATTGG | 0.15 kcal/mol |
| GAAGGCACGTGGTATA | -0.18 kcal/mol |
| ATGTGCACGTGTGGTG | 0.01 kcal/mol |
| TGTGTCACGTGCTGGG | 0.15 kcal/mol |
| GGCGACACGTGGTGGT | -0.02 kcal/mol |
| GTTAACACGTGAGCTG | 0.26 kcal/mol |
| TTAGTCACGTGCGATG | 0.19 kcal/mol |
| ACGTTCACGTGTTGTA | 0.22 kcal/mol |
| TTAGGCACGTGGTCTG | -0.12 kcal/mol |
| AATATCACGTGCGTGG | -0.03 kcal/mol |
| CATGGCACGTGGTTGA | -0.14 kcal/mol |
| CGTCGCACGTGGGTGA | -0.18 kcal/mol |
| GGGTTCACGTGTAGTC | 0.36 kcal/mol |
| GGACGCACGTGAGGGA | 0.1 kcal/mol |
| TTGGTCACGTGCAGGT | 0.13 kcal/mol |
| ATATTCACGTGGGATT | 0.3 kcal/mol |
| ATTGGCACGTGGTGTG | -0.18 kcal/mol |
| TATAGCACGTGTGGAT | 0.05 kcal/mol |
| AAGGTCACGTGTAGTG | 0.09 kcal/mol |
